Assay results reported in PubChem BioAssay AID2782 (National Center for Advancing Translational Sciences (NCATS), 2010).
Inconclusive results, whose numbers are uncertain, are shown with a selection of clear calls. Where the call is inconclusive, the potency comes from a doubtful curve fit. “Side channel” marks fits to a control or component signal instead of the main read-out. The source made the active and inactive calls. Calls follow the shape of the dose curve; as a rule, active = well fitted inhibition curve with a large enough effect in the polarisation, with a control signal flat (not every such curve was filed as active); inconclusive = small, poorly fitted or top-dose-only effect, or effect the other way, or a change in a side signal; inactive = no such curve, though single readings can be large or run the other way; the % refers to the polarisation.

Assay: Confirmation of Inhibitors Targeting the Menin-MLL Interaction in MLL Related Leukemias: Competition With Texas Red Labeled MLL-derived Mutant Peptide
Settings: fluorescence polarization, Texas Red MLL peptide displacement; FP change, negative = inhibition: at 94.6 µM (top of the series) unless noted
Method in brief: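 Hits from the primary screen were retested: compounds were incubated 1 hr at ambient with 200 nM menin, 50 nM Texas Red mutant peptide and 25 nM fluorescein wild-type peptide (Tris pH 7.5, BSA-supplemented buffer), then fluorescence polarization was read.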
% is scaled to controls: 0 for no effect and ±100 for the full control effect; potency is read from the fitted curve at half-maximal effect; tags tell the direction and shape of the fitted curve or compound fluorescence and quenching.

| SMILES | FP change, negative = inhibition | Potency |
| --- | --- | --- |
| CC(CC(=O)Nc1nc2ccccc2[nH]1)n1ccnc1 (stereo not given) | inactive: -14.1% | – |
| O=C(O)CSc1cc(NS(=O)(=O)c2ccc(Br)cc2)c2ccccc2c1O | – | inconclusive: 63.2 µM [quencher, partial curve] |
| O=C1c2ccccc2C(=O)c2c1ccc(O)c2O | – | inconclusive: 126 µM [quencher, side channel, partial curve] |
| O=C(CCC1CCCCC1)NCCN1C2=NC[C@H](Cc3ccc(O)cc3)N2C[C@H]1Cc1ccc(O)cc1 | – | inconclusive: 200 µM [inhibitor, partial curve, poor fit] |
| Cc1cc2ccccc2nc1SCC(=O)Nc1nc(-c2ccccc2)cs1 | – | inconclusive: 141 µM [fluorescent, side channel, partial curve] |
| O=C(O)c1ccccc1NS(=O)(=O)c1cccc(-n2sc3ccccc3c2=O)c1 | – | inconclusive: 126 µM [quencher, partial curve, poor fit] |
| COC(=O)[C@H](C)NC(=O)c1cc2c(cn1)[nH]c1ccccc12 | – | inconclusive: 44.7 µM [quencher, side channel, full curve, poor fit] |
| COc1ccc(OC)c(C(c2c(C)[nH][nH]c2=O)c2c(C)[nH][nH]c2=O)c1 | inactive: -9.46% [at 288 µM] | – |
| O=[N+]([O-])c1ccc(O)c(Nc2c([N+](=O)[O-])ccc3nonc23)c1 | – | inconclusive: 141 µM [quencher, side channel, partial curve] |
| CCc1ccc(NC(=O)CSc2nc(O)cc(=O)n2C2CCCC2)cc1 | – | inconclusive: 71 µM [inhibitor, partial curve] |
| Cc1[nH]nc(-c2ccc(OCc3cnn(-c4ccccc4)c3)c(C)c2O)c1Oc1ccccc1 | – | inconclusive: 20 µM [inhibitor, full curve] |
| COc1ccc(OC)c(C2C3=C(N=c4s/c(=C\c5cccc(O)c5)c(=O)n42)c2ccccc2CC3)c1 (stereo not given) | – | inconclusive: 15.9 µM [inhibitor, full curve] |
| O=C(/C=C/c1ccccc1)NC(NC(=S)Nc1cc(Cl)ccc1Cl)C(Cl)(Cl)Cl (stereo not given) | – | inconclusive: 25.1 µM [inhibitor, full curve, poor fit] |
| COc1cc(NC(=O)c2cccnc2)c(OC)cc1NC(=O)c1ccc(Br)cc1 | inactive: 8.48% | – |
| CCCC(c1nnnn1Cc1ccco1)N1CCN(C2CCCC2)CC1 (stereo not given) | – | active: 79.4 µM |
| CCc1ccc2c(c1)C(NC(C)=O)C(=O)N2CCN1CCOCC1 (stereo not given) | – | inconclusive: 79.6 µM [inhibitor, single point] |
| CC(c1ccccc1)c1nnc(NC(=O)Nc2ccccc2F)s1 (stereo not given) | – | inconclusive: 100 µM [inhibitor, single point] |
| COc1ccc(CC(=O)Nc2ccc(-c3nnc(-c4ccccc4)o3)cc2)cc1 | inactive: 36.9% | – |
| COc1ccc2[nH]c3c(C)c4ccncc4c(C)c3c2c1 | – | inconclusive: 126 µM [quencher, side channel, partial curve] |
| C[C@H](NC(=O)c1cc2c(cn1)[nH]c1ccccc12)C(=O)O | – | active: 56.4 µM |
| CN(C)C(CNc1ncnc2sc3c(c12)CCCCC3)c1ccco1 (stereo not given) | – | active: 141 µM |
| C=CCN(CC=C)S(=O)(=O)c1ccc(NC(=S)NC(=O)/C=C/c2cccc3ccccc23)cc1 | – | inconclusive: 20 µM [inhibitor, full curve, poor fit] |
| CCOC(=O)c1sc(NC(=O)Nc2ccc(Cl)cc2)nc1C | – | inconclusive: 50.1 µM [fluorescent, side channel, partial curve] |
| COc1ccc(-c2cc(-c3ccc(C)cc3)n[nH]2)c(O)c1 | – | inconclusive: 89.1 µM [quencher, side channel, full curve] |
| CCOc1ccccc1N(CC(=O)Nc1ccccc1C(=O)N1CCCC1)S(C)(=O)=O | inactive: 2.1% | – |
| Cc1cccc(NC(=S)NC(NC(=O)OCc2ccccc2)C(Cl)(Cl)Cl)c1 (stereo not given) | – | inconclusive: 112 µM [inhibitor, partial curve] |
| CN(CCOc1ccc(Cl)cc1)CC(O)c1ccccc1 (stereo not given) | – | inconclusive: 126 µM [inhibitor, partial curve, poor fit] |
| CN1C[C@@H]2C[C@H]1CN2c1cc2c(cc1F)c(=O)c(C(=O)O)cn2C1CC1 | inactive: -15.4% | – |
| Cc1ccc(C)n1-c1ccc(N(C)C)cc1 | inactive: -2.7% | – |
| COc1ccc(NC(=O)NC2(C(=O)N3CCOCC3)CCCCC2)cc1 | inactive: 2.58% | – |
